Experimental data as given in US12570764B2, “Anti-MUC16 antibodies, antibody-drug conjugates, and bispecific antigen-binding molecules that bind MUC16 and CD3, and uses thereof” (Regeneron Pharmaceuticals, Inc., priority 2016, dated 2026).

Target: T1, soluble monomeric human MUC16 (hMUC16.mmh, last five SEA domains) (Homo sapiens, UniProt Q8WXI7)
T1 construct: C-terminal tags (.mmh)
Assay: Surface plasmon resonance (Biacore) binding to hMUC16 fragment at 25° C.
Parameters: key: NB: No binding
Details: Table 5A, hybridoma antibodies (H1M, H2M, H3M)

T1 sequence (Q8WXI7 with tags, fused parts or gaps): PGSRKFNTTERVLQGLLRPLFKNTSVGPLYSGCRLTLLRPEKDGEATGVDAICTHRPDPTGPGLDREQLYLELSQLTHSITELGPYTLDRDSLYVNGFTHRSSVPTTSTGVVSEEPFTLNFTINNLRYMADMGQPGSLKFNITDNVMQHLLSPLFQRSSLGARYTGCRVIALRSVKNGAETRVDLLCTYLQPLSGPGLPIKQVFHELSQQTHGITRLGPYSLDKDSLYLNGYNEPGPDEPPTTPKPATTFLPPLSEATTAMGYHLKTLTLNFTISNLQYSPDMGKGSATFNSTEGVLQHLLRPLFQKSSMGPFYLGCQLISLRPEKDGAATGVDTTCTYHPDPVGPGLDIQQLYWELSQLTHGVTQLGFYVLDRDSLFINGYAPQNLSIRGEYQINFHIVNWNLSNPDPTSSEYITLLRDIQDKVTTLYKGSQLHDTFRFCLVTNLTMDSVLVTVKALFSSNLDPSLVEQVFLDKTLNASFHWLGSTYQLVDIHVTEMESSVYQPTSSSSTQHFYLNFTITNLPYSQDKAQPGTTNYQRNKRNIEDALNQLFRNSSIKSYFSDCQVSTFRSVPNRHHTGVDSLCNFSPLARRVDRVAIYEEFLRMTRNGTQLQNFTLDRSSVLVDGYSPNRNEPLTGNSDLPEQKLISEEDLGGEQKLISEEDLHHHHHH

B1: H3M9525N: hybridoma anti-MUC16 antibody, mIgG3; HCVR/LCVR SEQ ID NOs: 362/370 (antibody, V domains shown)
VH: QVQLQQWGAGLLKPSETLSLTCAVYGGSFSGYYWSWIRQPPGKGLEWIGEINHSGKTTYSPSLKSRVTISVDTSKSQFSLKLSSVTAADTAVYYCARQGLNYAIFDYWGQGTLVTVSS
VL: YIVMTQSPDSLAVSLGERATINCKSSRSILYTSNNKNYLAWYQQRPGQPPKLLIYWASTRESGVPDRFSGSGSGTDFTLTISSLQAEDVAVYYCQQYFSSPPTFGQGTKVEIK
modifications: mIgG3
  KD: no binding and NB
  ka: NB
  kd: NB
Dissociative half-life
  t ½: NB
